Experimental data reported in PubChem BioAssay AID488969 (Vanderbilt High Throughput Screening Facility, 2010).
Whole data set: some 110,000 compounds, median “z-score” near -0.1, cut for the highest 2% near 2. Some of the results follow.

target: Metabotropic glutamate receptor 8 (Rattus norvegicus) (UniProt P70579); test: rat mGluR8 modulators via GIRK flux, primary screen, cell-based, thallium flux, HTS (AID 488969); settings: HEK293 rat mGluR8, GIRK (G protein-gated inwardly rectifying potassium channel) thallium flux, FluoZin2; at 10 µM; stronger effect = higher value; submaximal glutamate (EC20) added with thallium
Chain of UniProt P70579 (P70579 whole entry, looked up): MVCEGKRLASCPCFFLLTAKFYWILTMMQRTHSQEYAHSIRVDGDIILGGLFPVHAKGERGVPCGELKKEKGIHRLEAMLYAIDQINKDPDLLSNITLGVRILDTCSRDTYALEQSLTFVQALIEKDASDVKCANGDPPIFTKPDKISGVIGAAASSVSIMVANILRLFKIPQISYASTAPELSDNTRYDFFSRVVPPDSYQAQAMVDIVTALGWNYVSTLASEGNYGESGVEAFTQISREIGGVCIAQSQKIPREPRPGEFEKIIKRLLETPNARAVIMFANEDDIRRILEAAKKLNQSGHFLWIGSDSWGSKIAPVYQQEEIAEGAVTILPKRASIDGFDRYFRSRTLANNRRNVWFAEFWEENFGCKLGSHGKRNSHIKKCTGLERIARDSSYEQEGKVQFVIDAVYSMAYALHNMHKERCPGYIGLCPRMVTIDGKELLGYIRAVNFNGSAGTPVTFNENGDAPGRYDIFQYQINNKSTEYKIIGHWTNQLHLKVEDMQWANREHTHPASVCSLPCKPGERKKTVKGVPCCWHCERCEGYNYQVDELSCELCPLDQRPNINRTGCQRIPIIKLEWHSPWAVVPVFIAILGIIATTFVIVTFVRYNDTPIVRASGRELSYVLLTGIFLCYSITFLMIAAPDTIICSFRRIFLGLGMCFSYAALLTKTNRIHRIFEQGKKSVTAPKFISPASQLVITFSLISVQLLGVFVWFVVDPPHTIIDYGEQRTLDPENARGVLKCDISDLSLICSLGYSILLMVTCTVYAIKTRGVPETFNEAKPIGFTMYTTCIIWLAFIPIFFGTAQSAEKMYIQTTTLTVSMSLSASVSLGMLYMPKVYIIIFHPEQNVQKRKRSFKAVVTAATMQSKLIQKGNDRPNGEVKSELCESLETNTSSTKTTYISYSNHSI

Row | Structure (SMILES) | z-score
1 | CCC(C)(C(=O)NC1CCCCC1)N(Cc1ccco1)C(=O)c1ccc2c(c1)OCO2 (stereo not given) | -0.0657
2 | O=C(Oc1c(Cl)cc(Cl)c2cccnc12)N1CCCCC1 | 0.0706
3 | O=C(NC(=S)N1CCOCC1)C12CCC3CC(CC(C3)C1)C2 | 0.411
4 | COc1cc(CN2CCN(c3cc(C)ccc3C)CC2)cc([N+](=O)[O-])c1O | 0.0603
5 | O=C(CCS(=O)(=O)Cc1ccccc1)N1CCc2ccccc2C1 | -0.136
6 | CCCc1nnc(SCCSc2nnc(CCC)n2N)n1N | 0.314
7 | CCc1cc2cc(C)ccc2nc1SCC(=O)N1CCN(C(=O)c2ccco2)CC1 | 1.74
8 | Cc1cccc(C)c1OCC(O)Cn1nnc2ccccc21 (stereo not given) | -0.0886
9 | Cc1ccc(CCc2nnc(SCC(=O)Nc3ccccc3Cl)n2-c2ccccc2)o1 | -0.43
10 | O=c1ccn(Cc2ccccc2Cl)cc1 | -0.259
11 | O=C(O)c1ccc2noc(-c3ccccc3)c2c1 | 0.475
12 | COc1ccc(N2CCN(C(=O)c3ccc(NS(=O)(=O)c4cccc(F)c4)cc3)CC2)cc1 | -0.764
13 | CCC(=O)Nc1cccc(NC(=S)NC(=O)c2cccc(C)c2)c1 | 0.23
14 | N#Cc1c(-c2ccc(Cl)cc2)ccn2nc(CCC(=O)O)nc12 | -0.136
15 | OCCn1c(Cl)nc2ccccc21 | 0.583
16 | CS(=O)(=O)Nn1cnc2ccccc2c1=O | 0.271
17 | O=C(COC(=O)Cc1ccc(Cl)cc1Cl)Nc1ccc(OC(F)F)cc1 | -0.0649
18 | CCCCc1ccc(Nc2ncnc3nc[nH]c23)cc1 | 2.82
19 | CC(C)(C)c1ccc(C(=O)Nn2c(CCC(=O)O)ccc2-c2cccs2)cc1 | 0.244
20 | Cc1cc(Cl)c(OCCCn2cncn2)c(Br)c1 | 0.958
21 | CC1CCC(N2CCN(S(C)(=O)=O)CC2)CC1 (stereo not given) | -0.836
22 | NC(=O)CC[C@H](NC(=O)OCc1ccccc1)C(=O)OCc1ccc(Cl)cc1 | -0.325

Row | Structure (SMILES) | z-score
23 | CCn1cc(C(=O)N2CCN(Cc3ccc4c(c3)OCO4)CC2)c(=O)c2ccc(C)nc21 | -0.451
24 | Nc1ccc2oc(-c3ccccn3)nc2c1 | -0.214
25 | CCN1CCN(C(c2ccccc2F)c2nnnn2Cc2ccc3c(c2)OCO3)CC1 (stereo not given) | 0.762
26 | COc1ccc(-c2nc(-c3ccccc3)c(-c3cc([N+](=O)[O-])ccc3C)[nH]2)cc1O | -0.815
27 | COc1ccc(OCCNc2cc(N3CCCCC3)ccc2[N+](=O)[O-])cc1 | -0.255
28 | C=C(C)c1cccc(C(C)(C)NC(=O)N2CCN(CC)CC2)c1 | -0.189
29 | CN(C)/C=C1\C(=O)N(c2ccc([N+](=O)[O-])cc2)N=C1c1ccccc1 | -0.166
30 | O=C(OCCN1C(=O)c2ccccc2C1=O)c1cccc(OC(F)F)c1 | 0.266
31 | CC(OC(=O)c1ccccc1NS(=O)(=O)c1cccc(N)c1)C(=O)N(C)Cc1ccccc1 (stereo not given) | 0.0162
32 | COC(=O)c1c(NC(=O)CN2CCN(S(=O)(=O)c3ccccc3)CC2)sc2c1CCC(C)C2 (stereo not given) | -0.486
33 | Cn1c(=O)oc2cc(S(=O)(=O)Nc3ccc4c(c3)OCCO4)ccc21 | 0.0505
34 | CC(=O)Nc1ccc(/C(C)=N/NS(=O)(=O)c2ccccc2)cc1 | -0.0967
35 | O=C(NCC(=O)N(CC1CCCO1)C(C(=O)NC1CCCCC1)c1ccccc1)c1cccs1 (stereo not given) | -0.0826
36 | Cc1ccc(Sc2ccc(NC(=O)CCl)cc2)cc1C | -0.101
37 | CCOC(=O)c1cnn(-c2cc(C)nc3c(-c4ccccc4)c(C)nn23)c1N | 0.147
38 | O=C(CN(Cc1ccc(F)cc1)C(=O)Cn1nnc2ccccc21)NCC1CCCO1 (stereo not given) | -0.645
39 | CSc1ccccc1NC(=O)c1ccccc1N(C)S(C)(=O)=O | -0.0234
40 | CCc1ccc(NC(=O)CN(c2ccc3c(c2)OCO3)S(=O)(=O)c2c(C)noc2C)cc1 | -0.106
41 | Cc1oc(-c2cc(Cl)cc(Cl)c2)cc1C(=O)NCCc1ccccc1 | -0.179
42 | O=S(=O)(/C=C/c1ccccc1)n1cnc2ccccc21 | -0.0615
43 | CC(C)CNC(=O)c1cccc(NC(=O)c2ccco2)c1 | -0.479
44 | CCCCn1nc2cc(C(=O)NCC3CC3)ccc2c1OCC | 0.279

Row | Structure (SMILES) | z-score
45 | O=C(CSc1nnc2n1CCCN2C(=S)Nc1ccc(Cl)cc1)c1ccccc1 | -0.14
46 | O=C(CSC1=NC(=O)C(c2ccccc2)C(=O)N1)Nc1ccccc1Cl (stereo not given) | -0.614
47 | OCCOCCNc1ncnc2c1cnn2-c1ccccc1 | 0.137
48 | Cc1sc2nc(C(C)C)oc(=O)c2c1C | 0.56
49 | O=C(C1=NN[C@@H]2C(=O)N(c3cccc(C(F)(F)F)c3)C(=O)[C@H]12)c1ccc2ccccc2n1 | -0.547
50 | COc1ccc(N2CCN(Cc3nc(-c4ccc(Cl)cc4Cl)no3)CC2)cc1 | -0.276
51 | CCC(Sc1nc(=O)cc(N)n1-c1ccccc1)C(=O)Nc1cc(C)on1 (stereo not given) | -0.0468
52 | CN(C)c1ccc(/C=C2\SC(=O)N(CC(O)Cn3c4ccccc4c4ccccc43)C2=O)cc1 (stereo not given) | 0.115
53 | C=CCn1c(SCC(=O)c2ccc(OC)cc2)nnc1-c1cc2cccc(OC)c2o1 | -0.346
54 | CCCc1cc(C(=O)NNC(=S)NCC)c2ccccc2n1 | -0.123
55 | O=c1c(-c2ccc(F)cc2)coc2c3c(ccc12)OCCO3 | -2.73
56 | CCOC(=O)C1CCN(C(=O)C2CCN(c3nc4ccc(OC)cc4s3)CC2)CC1 | -1.52
57 | O=C(c1cccs1)N1CCN(c2ccc(F)cc2)CC1 | 0.0587
58 | Cc1ccc(Oc2ccc(NC(=O)CSc3n[nH]c(N)n3)cc2)cc1 | -0.066
59 | Cc1cccc2sc(NC(=O)CN(C)S(=O)(=O)c3ccc(Br)s3)nc12 | 0.241
60 | CCOc1cccc(CNc2ccc(O)cc2)c1OCc1ccc(Cl)cc1Cl | -0.117
61 | CCc1nccn1S(=O)(=O)c1cc(C)c(OC)cc1C | -0.0861
62 | Cc1nc2sc3c(NCc4ccco4)ncnc3c2c2c1COC(C)(C)C2 | -0.61
63 | CCC(=O)Oc1ccc(C(=O)Nc2cccc(C(=O)c3ccccc3)c2)cc1 | 0.022
64 | CCC1(C)OC(=O)NN(c2ccc(C)cc2)C1(C)O (stereo not given) | -0.143
65 | Cc1cc(C(F)F)n2ncc(C(=O)NCc3ccccc3C(F)(F)F)c2n1 | -0.759
66 | CCOC(=O)CSCC(=O)Nc1ccc(S(=O)(=O)N2CCCCC2)cc1 | 0.13

Row | Structure (SMILES) | z-score
67 | Cc1ccc(OCC(=O)N(c2ccccn2)C2CCCCC2)c(C)c1 | -0.0973
68 | O=C(Nc1ccc(F)cc1F)c1ccc(COc2c(F)c(F)cc(F)c2F)o1 | -0.425
69 | Nc1nonc1C(=O)NCCNS(=O)(=O)c1ccc(F)cc1 | -0.403
70 | O=C1C=C(NCC2CCCO2)C2(CCCCC2)O1 (stereo not given) | -0.0518
71 | COC(=O)CS(=O)(=O)c1nnc([C@H](Cc2ccccc2)NC(=O)OC(C)(C)C)o1 | -1.05
72 | COc1ccc(OCC(=O)N2CCN(C(=O)COc3ccccc3)CC2)cc1 | 0.0899
73 | CCOc1ccc(-c2csc(NC(=O)C3CCCO3)n2)cc1 (stereo not given) | -0.57
74 | CCOC(=O)C1=C(O)c2ccccc2C(=O)/C1=C\c1ccc(CC)cc1 | -0.196
75 | Cc1ccc(CSc2nnc(-c3cccnc3)o2)cc1 | -0.136
76 | O=C(NCc1ccc(F)cc1)c1cc(-c2ccco2)on1 | 0.0586
77 | CCS(=O)CCSc1nc2ccccc2s1 (stereo not given) | 0.19
78 | Cc1cc(C)nc(SCC(=O)Nc2ccc(S(=O)(=O)N3CCCCC3)cc2)n1 | 0.159
79 | CC1=C(C)/C(=N/OC(=O)c2cccc([N+](=O)[O-])c2)C=CC1=O | -0.204
80 | COC(=O)c1nc(NC(=O)c2ccc(Br)cc2)n[nH]1 | -0.04
81 | O=C(O)Cc1ccc(N=Cc2c(O)ccc3ccccc23)cc1 | 0.101
82 | CC(CCc1ccccc1)C(=O)NO (stereo not given) | -0.196
83 | CCc1cccc(NC(=O)CSCc2cc(=O)[nH][nH]2)c1 | 0.767
84 | COC(=O)c1oc2ccccc2c1-n1cccc1 | -0.249
85 | CC(C)n1c(=N)c(C(=O)NCCc2ccccc2)cc2c(=O)n3ccccc3nc21 | 0.515
86 | Cc1cc(C)cc(N(CC(=O)N/N=C/c2ccncc2)S(=O)(=O)c2ccccc2)c1 | -0.365
87 | Cc1cc2oc(C(=O)NCc3ccc4c(c3)OCO4)c(C)c2cc1C | 0.066
88 | COC(=O)Nc1ccc(S(=O)(=O)N2CCCCC2C(=O)NCc2ccco2)cc1 (stereo not given) | -0.296

Row | Structure (SMILES) | z-score
89 | CC(=O)Nc1ccc(Nc2cc(C)nc3c(-c4ccc(Cl)cc4)cnn23)cc1 | 0.0199
90 | Cc1ccc(CCN2CC(C(=O)N3CCN(c4ccc(F)cc4)CC3)CC2=O)cc1 (stereo not given) | 0.106
91 | COCc1cc(=O)[nH]c2cc(NC(=O)C(F)(F)F)c(C)cc12 | -0.236
92 | Cc1cc(Cl)c(S(=O)(=O)NCC2CCCO2)cc1OCC(N)=O (stereo not given) | -0.00128
93 | N#Cc1c(SCC(=O)N2CCCCC2)nsc1SCC(=O)N1CCCCC1 | -0.232
94 | O=C(O)c1ccc(NCc2cccnc2)cc1 | -0.24
95 | COc1cccc(C(=O)Nc2ccc(S(=O)(=O)Nc3onc(C)c3C)cc2)c1 | -0.395
96 | N#CC1=C(N)N=C(SCc2cccc3ccccc23)C(C(N)=O)C12CCCCC2 (stereo not given) | -0.44
97 | CC(C)NC(=O)c1ccc(-c2cccc(C(F)(F)F)c2)o1 | -0.135
98 | Cc1cc(=O)[nH]c(SCC(=O)NCCc2ccccc2)n1 | 1.96
99 | Cc1ccnc(SCCn2c(N3CCC(C)CC3)nc3c2c(=O)[nH]c(=O)n3C)n1 | -0.0416
100 | COCCn1cnc2cc(C)c(C)cc21 | -0.527
101 | O=C(C1CCN(S(=O)(=O)c2cnc[nH]2)CC1)N1CCn2c1nc1ccccc12 | -0.128
102 | O=C(CS(=O)(=O)c1cn(Cc2cccc(F)c2)c2ccccc12)N1CCCCC1 | -0.211
103 | CS(=O)(=O)N1CCN(c2ccccc2NC(=O)c2cccnc2)CC1 | -0.215
104 | CC(=Nc1ccccc1)C1=C(O)COC1=O | 0.0875
105 | O=C(NNC(=S)NC1CCCCC1)c1ccc2c(c1)OCO2 | 0.0724
106 | O=C(c1ccc(Cn2cc([N+](=O)[O-])cn2)o1)N1N=C(C(F)F)CC1(O)C(F)F (stereo not given) | -0.151
107 | Cc1ccccc1NC(=O)CSCCN1C(=O)c2ccccc2C1=O | -0.0122
108 | Cc1ccc(N2C(=O)C3ON(c4ccccc4)C(c4ccncc4)C3C2=O)c(C)c1 (stereo not given) | 0.0213
109 | CCCCCCCCCCS(=O)(=O)N/N=C/c1ccc(O)cc1 | -0.604
110 | Cc1ccc(C(=O)NC(NCc2ccco2)C(Cl)(Cl)Cl)cc1 (stereo not given) | -0.17
